Experimental data published in PubChem BioAssay AID445 (National Center for Advancing Translational Sciences (NCATS), 2006).
Several values for one entry are separate records, joined by “and”; a condition that tells them apart may be missing. Equal entries are not always repeated. The whole screen tested about 110,000 compounds, of which about 40 (0.04%) were called active. Inconclusive results, whose numbers are uncertain, are shown with a selection of clear calls. Calls come from the whole dose curve; as a rule, active = well fitted curve in the direction sought with a large enough effect in the signal ratio (not every such curve was filed as active); inconclusive = small, poorly fitted or top-dose-only effect, or a change in a side signal; inactive = flat fitted curve, though single readings scatter; the % refers to the signal ratio. Potencies of inconclusive entries are doubtful fits and often do not repeat.

Assay: IkB Signaling;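 for IkBa stabilization activation: 0% = basal untreated cells and 100% = reference inhibitor full response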
Conditions: ABC-DLBCL IkBa-CBG/CBR dual luciferase ratio (green luciferase fused to IkBa over red control in OCI-Ly3 lymphoma cells), 4 h; IkBa stabilization activation: at 57.1 µM (top of the series), scaled: untreated 0%, proteasome inhibitor 100% unless noted
Procedure, shortened: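 In this assay, an IκBα–CBG68 fusion accumulates when IKK-driven degradation is blocked; native CBR normalizes for cell number. OCI-Ly3 cells were treated 4 h with compound and doxycycline, then green and red light read after Chroma-Glo addition.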
Potency is the fitted concentration of half-maximal effect.

Row | Structure (SMILES) | IkBa stabilization activation | Potency
1 | O=C(CN1CCC(n2nnc3cc(F)ccc32)CC1)Nc1ccccc1N1CCOCC1 | inactive: -0.455% | 
2 | O=C(N1CCOCC1)C1(c2ccccc2)CCCCC1 | inactive: 0.706% | 
3 | COc1cc(/C=N/n2cnnc2)ccc1OC(=O)c1cccnc1 | inconclusive: 1.99% [signal inhibitor] | 
4 | CC(C)(CO)Cc1cc(C(C)(C)C)c(O)c(C(C)(C)C)c1 | inconclusive: 3.95% [signal activator] and inconclusive: 0.625% [signal inhibitor] | 
5 | COc1ccc(-c2c(C#N)c(SCC(=O)Nc3ccc(C)c(C)c3)nc(C)c2C(=O)Nc2ccccc2)cc1OC | inactive: 4.88% | 
6 | Cc1ccc(N(C)S(=O)(=O)c2nnc(NC(=O)c3ccco3)s2)cc1 | inconclusive: 1.41% [signal inhibitor] | 
7 | CCCC(c1nnnn1Cc1ccccc1)N1CCN(c2ccccc2OC)CC1 (stereo not drawn) | inconclusive: 5.29% [signal inhibitor] | 
8 | Cc1cccc(NC(=O)COc2ccc(Br)cc2)n1 | inconclusive: 3.23% [signal inhibitor] | 
9 | COc1ccc(CNC(=O)C2CCN(C(=O)N3CCOc4ccc(C)cc43)CC2)cc1 | inconclusive: 1.36% [signal inhibitor] | 
10 | C=C(C)COc1ccc(-c2[nH]ncc2-c2ccc(OC)c(OC)c2)c(O)c1 | inconclusive: -3.83% [signal inhibitor] | 
11 | O=C(NCc1ccc(Cl)cc1)c1cc2cccc3c2n1CCS3 | inconclusive: -3.38% [signal inhibitor] | 
12 | Cc1cc2ccccc2n1CCNC(=O)c1cccs1 | inactive: 5.56% | 
13 | CC1CCCN(C(=O)c2ccc(CSc3nc4ccncc4n3Cc3ccccc3)cc2)C1 (stereo not drawn) | inconclusive: 0.749% [signal inhibitor] | 
14 | O=C(O)CCc1ccc(-c2ccc(F)cc2)n1Cc1ccco1 | inconclusive: 7.28% [signal inhibitor] | 
15 | COc1ccccc1-c1cc(NCc2cccc(C)c2)ncn1 | inactive: 0.0177% [at 11.4 µM, scaled: untreated 0%, proteasome inhibitor 100%] | 
16 | COc1ccccc1N1CCN(c2c3c(nc4nncn24)CCC3)CC1 | inactive: 1.43% | 
17 | CCc1cc2c(c(CC)n1)CCC(=O)N2Cc1ccc(-c2ccccc2-c2nn[nH]n2)cc1 | inactive: 0.31% | 
18 | Cc1nc2ccccc2c2oc(C(=O)N3CCN(C(=O)c4ccco4)CC3)cc12 | inactive: 1.14% | 
19 | Cc1cccc(NC(=O)Cn2c(=O)n(Cc3nc(-c4ccccc4)no3)c(=O)c3ccccc32)c1 | inconclusive: -0.255% [signal inhibitor] | 
20 | COC(=O)c1sccc1S(=O)(=O)N(CC(=O)NCc1ccc(F)cc1)c1ccccc1 | inconclusive: -0.0892% [signal inhibitor] | 
21 | O=C(CCNS(=O)(=O)c1ccc(Br)s1)Nc1ccc(Br)cc1 | inconclusive: 3.6% [signal inhibitor] | 
22 | CCc1cc2cc(C(=O)N3CCN(Cc4ccccc4)CC3)sc2s1 | inconclusive: -3.24% [signal inhibitor] | 
23 | CCOc1cccc(CC(=O)NCc2ccc3c(c2)CCN3C(=O)c2cccc(C)c2)c1OCC | inactive: 2.33% | 

Row | Structure (SMILES) | IkBa stabilization activation | Potency
24 | COc1cc(NS(=O)(=O)c2ccc(NC(=O)COc3ccc(Cl)cc3Cl)cc2)nc(OC)n1 | inconclusive: 11.6% [signal inhibitor] | 
25 | CCOc1ccccc1N(CC)C(=O)Cn1ncc2c1-c1ccccc1OC2 | inconclusive: 0.29% [signal inhibitor] | 
26 | CCOc1ccc(NC(=O)CSc2nc(-c3ccccc3)c3cc(OCC)ccc3n2)cc1 | inconclusive: 1.03% [signal inhibitor] | 
27 | Cc1cc(C)c2c(CC(=O)NCc3ccco3)coc2c1 | inactive: 1.81% | 
28 | CCOC(=O)O[C@]1(C(=O)COC(=O)CC)CC[C@@H]2[C@@H]3CCC4=CC(=O)C=C[C@@]4(C)[C@H]3[C@H](O)C[C@]21C | inconclusive: 9.31% [signal activator] [at 25.6 µM, scaled: untreated 0%, proteasome inhibitor 100%] | 
29 | Cc1cc(C)n(-c2nnc(C)n2/N=C/c2ccccc2OCc2ccccc2Cl)n1 | inconclusive: -3.13% [signal inhibitor] | 
30 | Cc1cc(OCC(=O)NCCCN2CCOCC2)cc(C)c1Cl | inactive: 0.695% | 
31 | COc1ccc(CNC(=O)c2cnc3sc4cc(OC)ccc4n3c2=O)cc1 | inactive: -1.03% | 
32 | O=C(NCc1ccccc1Cl)C(=O)NCC(c1ccc2c(c1)OCO2)N1CCOCC1 (stereo not drawn) | inconclusive: 6.51% [signal inhibitor] | 
33 | CCC(CC)C(=O)N1CCc2cc(OC)c(OC)cc2C1COc1ccc2c(C)cc(=O)oc2c1 (stereo not drawn) | inconclusive: 3.52% [signal inhibitor] | 
34 | CCC1C(C#N)=C(N)OC2=C1C(=O)CC(C)(C)C2 (stereo not drawn) | inactive: 1.53% | 
35 | O=C(NCc1ccccc1Cl)c1cc(-c2ccccc2)n[nH]1 |  | inconclusive: 25.1 µM [signal inhibitor, partial curve]
36 | O=C(Cn1c2ncccc2c(=O)n1-c1ccccc1)NCc1ccccc1 | inconclusive: 1.73% [signal inhibitor] | 
37 | O=C(CS(=O)(=O)c1nc(-c2ccc(Cl)cc2)cn1-c1ccccc1)Nc1cccc(Cl)c1 | inconclusive: 4.27% [signal inhibitor] | 
38 | Cc1nc(-c2ccccc2)sc1-c1ccc(SCC(=O)Nc2ccccc2)nn1 | inconclusive: -1.03% [signal inhibitor] | 
39 | Cc1ccc(NC(=O)c2ccc(F)c(S(=O)(=O)NCCc3ccccc3)c2)cc1F | inconclusive: -3.7% [signal inhibitor] | 
40 | Cc1oc(-c2cccc(Br)c2)nc1CN1CCC(C(=O)NCc2ccccc2)CC1 | inconclusive: -4.3% [signal inhibitor] | 
41 | COc1cccc(C2C(C(N)=O)=C(C)Nc3nc(CCCO)nn32)c1 (stereo not drawn) | inactive: -1.31% | 
42 | Cc1ccc2nc(NC(=O)C3CCCN(S(=O)(=O)c4cccc5nsnc45)C3)sc2c1 (stereo not drawn) | inconclusive: 6.98% [signal inhibitor] | 
43 | COc1cccc(CNC(=O)Cc2c(C)c3cc4c(C)coc4cc3oc2=O)c1 | inconclusive: 1.37% [signal inhibitor] | 
44 | C=C(CO)[C@H]1Cc2c(ccc3c2O[C@H]2COc4cc(OC)c(OC)cc4[C@@H]2C3=O)O1 | inactive: 9.35% [at 11.4 µM, scaled: untreated 0%, proteasome inhibitor 100%] | 
45 | COc1cccc(NC(=O)c2csc3c2CCCCC3)c1 | inconclusive: -1.94% [signal inhibitor] | 
46 | COc1ccc(-c2nc(CSCC(=O)NCCc3ccc(OC)c(OC)c3)c(C)o2)cc1 | inconclusive: 2.59% [signal inhibitor] | 

Row | Structure (SMILES) | IkBa stabilization activation | Potency
47 | CC(C)NC(=O)C1=CC(c2ccc3c(c2)OCO3)=NS(=O)(=O)N1C | inconclusive: 1% [signal inhibitor] | 
48 | COc1ccc(-c2nnc(Nc3nc4c(OC)cccc4s3)o2)c(OC)c1 |  | inconclusive: 31.6 µM [rising, partial curve]
49 | COc1ccc(OC)c(C2CC(=O)N3CN(c4ccccc4)CSC3=C2C#N)c1 (stereo not drawn) | inactive: 5.94% | 
50 | Cc1cc(Cl)ccc1NC(=O)CCS(=O)(=O)c1ccc2c(c1)CC(C)N2C(=O)C1CC1 (stereo not drawn) | inconclusive: 0.0495% [signal inhibitor] | 
51 | COc1ccc(C2C(C(=O)Nc3cccnc3)=C(C)Nc3nc(-c4ccc(OC)c(OC)c4)nn32)cc1 (stereo not drawn) | inconclusive: -1.24% [signal inhibitor] | 
52 | CCOC(=O)c1c(C)[nH]c(CCC(=O)NCc2cc(Br)ccc2OC)c1C | inconclusive: 0.829% [signal inhibitor] | 
53 | CCc1c(C)nc(Nc2nc(C)c3cc(OC)ccc3n2)[nH]c1=O | inconclusive: 9.35% [signal inhibitor] | 
54 | Cc1c(C(=O)N2CCCC2)oc2c1-c1nn(CC(=O)NCc3ccccc3F)cc1CC2 | inactive: -1.43% | 
55 | COCCNC(=O)c1cnc2sc(N3CCC(C)CC3)nn2c1=O | inactive: -3.47% | 
56 | CCN(C(=O)c1cnc2ccc(C)cn2c1=O)c1ccccc1 | inactive: -3.75% | 
57 | O=C(C1CCC1)N1CCc2cc(S(=O)(=O)NCC3COc4ccccc4O3)ccc21 (stereo not drawn) | inconclusive: 7.39% [signal inhibitor] | 
58 | Cc1cccc(Cn2c(N3CCN(c4ccccc4)CC3)nc3c2c(=O)n(C)c(=O)n3C)c1 | inconclusive: 9.79% [signal inhibitor] | 
59 | CCc1ccc(NC(=O)C2CCN(c3nn4c(=O)cc(C)nc4s3)CC2)cc1 | inactive: 0.627% | 
60 | COc1ccc(S(=O)(=O)N2Cc3ccccc3CC2C(=O)Nc2nccs2)cc1OC (stereo not drawn) | inconclusive: 10.5% [signal inhibitor] | 
61 | O=C(Nc1ccc2c(c1)CCCN2C(=O)c1cccs1)c1ccccc1Cl | inconclusive: 3.44% [signal inhibitor] | 
62 | COc1cccc(C2=NOC(C(=O)NC3CCCCC3)C2)c1 (stereo not drawn) | inconclusive: 2.04% [signal inhibitor] | 
63 | Cc1cccc(OCc2nnc(SCn3nnc4ccccc4c3=O)o2)c1 | inconclusive: 0.858% [signal inhibitor] | 
64 | Cc1cccc(-c2nnc(C3CCN(S(=O)(=O)c4cccc(Cl)c4)CC3)o2)c1 | inactive: 5.81% | 
65 | COc1cc(C2NC(=O)c3c(sc4c3CCN(C)C4)N2)cc(OC)c1OC (stereo not drawn) | inconclusive: 1.93% [signal inhibitor] | 
66 | COc1ccc(Br)cc1CN1C(=O)c2ccccc2C1C(=O)NC1CCCCCC1 (stereo not drawn) | inconclusive: 2.86% [signal inhibitor] | 
67 | COc1cc(C2c3sc(=O)[nH]c3SC3C4CCC(C4)C23)ccc1O (stereo not drawn) | inconclusive: 4.07% [signal inhibitor] | 
68 | COC(=O)c1c(NC(=O)CCCOc2cccc(C)c2)sc2c1C(C(=O)OC)CC2 (stereo not drawn) |  | inconclusive: 3.98 µM [signal inhibitor, full curve, poor fit]
